About 14,000 (4.5%) of roughly 310,000 compounds showed an effect of 50% or more. The effect is printed as a negative number. This is one part of the list.
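Note: peak tail current of the secondary pulse compared with the same well before compound.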

The target of this experiment is human ether-à-go-go-related gene (hERG) potassium channel (human, UniProt Q12809). Briefly: primary screen, population patch clamp on CHO cells stably expressing hERG.
Sequence of human ether-à-go-go-related gene (hERG) potassium channel (Q12809 whole entry, looked up): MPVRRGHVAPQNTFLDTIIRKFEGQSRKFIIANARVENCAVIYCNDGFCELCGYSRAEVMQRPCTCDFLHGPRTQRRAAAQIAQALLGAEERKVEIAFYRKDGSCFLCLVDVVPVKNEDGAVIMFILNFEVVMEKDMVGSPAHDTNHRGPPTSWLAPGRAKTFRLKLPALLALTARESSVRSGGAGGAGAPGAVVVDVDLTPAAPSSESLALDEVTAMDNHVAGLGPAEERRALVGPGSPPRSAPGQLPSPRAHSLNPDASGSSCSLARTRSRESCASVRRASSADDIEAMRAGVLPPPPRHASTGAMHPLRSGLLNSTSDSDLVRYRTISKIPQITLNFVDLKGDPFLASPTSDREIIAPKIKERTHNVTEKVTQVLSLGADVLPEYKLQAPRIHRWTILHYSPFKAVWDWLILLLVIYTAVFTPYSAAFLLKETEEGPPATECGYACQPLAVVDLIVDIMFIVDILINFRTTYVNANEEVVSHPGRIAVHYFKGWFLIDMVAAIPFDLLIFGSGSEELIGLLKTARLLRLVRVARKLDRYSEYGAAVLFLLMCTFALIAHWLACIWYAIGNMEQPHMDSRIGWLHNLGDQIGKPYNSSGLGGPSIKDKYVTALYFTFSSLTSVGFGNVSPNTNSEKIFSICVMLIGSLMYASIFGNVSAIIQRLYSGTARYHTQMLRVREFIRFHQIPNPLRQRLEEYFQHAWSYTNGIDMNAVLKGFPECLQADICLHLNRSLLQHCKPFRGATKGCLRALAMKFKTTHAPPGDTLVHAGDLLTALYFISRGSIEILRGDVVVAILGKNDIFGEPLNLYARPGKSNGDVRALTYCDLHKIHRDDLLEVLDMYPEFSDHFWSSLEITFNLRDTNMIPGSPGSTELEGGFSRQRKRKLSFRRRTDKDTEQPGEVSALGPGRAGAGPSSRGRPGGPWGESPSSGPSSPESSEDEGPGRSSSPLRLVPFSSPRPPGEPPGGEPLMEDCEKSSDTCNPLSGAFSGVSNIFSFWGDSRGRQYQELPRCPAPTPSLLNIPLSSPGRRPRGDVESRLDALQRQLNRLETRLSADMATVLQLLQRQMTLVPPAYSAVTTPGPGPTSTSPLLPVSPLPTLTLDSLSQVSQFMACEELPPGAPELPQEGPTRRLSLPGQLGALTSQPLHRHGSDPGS
On to `CCc1ccc(NC(=O)/C(C#N)=C/c2cn(CC(=O)O)c3ccccc23)cc1`, for which the “hERG current change (%, negative = inhibition) at 10uM” value was found to be 11.6%.

On to `CCN1CCN(c2c(S(=O)(=O)c3ccc(C)c(C)c3)cnc3ccc(F)cc23)CC1`, for which the “hERG current change (%, negative = inhibition) at 10uM” value is -53.4%.

On to `O=C(Nc1ccc(F)c(Cl)c1)C1CCN(c2ncnc3c2nc2n3CCCCC2)CC1`, for which the “hERG current change (%, negative = inhibition) at 10uM” value was -31.7%.

With `COc1ccc(CCNC(=O)COc2ncnc3cc([N+](=O)[O-])ccc23)cc1`, the “hERG current change (%, negative = inhibition) at 10uM” value is -16.5%.

With `CC(C)Oc1ccc(C(=O)NC(=S)Nc2ccc(CN3CCOCC3)cc2)cc1`, the “hERG current change (%, negative = inhibition) at 10uM” value is reported as -8.75%.

On to `O=C(COc1ccccc1)Nc1sc2c(c1C(=O)NCc1cccnc1)CCCC2`, for which the “hERG current change (%, negative = inhibition) at 10uM” value was -5.27%.

Regarding `CC(=O)Nc1ccc(OC(F)(F)C(F)F)c(NC(C)=O)c1`, the “hERG current change (%, negative = inhibition) at 10uM” value is recorded as 15.3%.

Consider `Cc1ccn2c(Nc3ccc4c(c3)OCO4)c(-c3ccccn3)nc2c1`, for which the “hERG current change (%, negative = inhibition) at 10uM” value was -67.4%.

Regarding `O=C(CCNC(=O)c1ccco1)Nc1ccc(C(F)(F)F)cc1`, the “hERG current change (%, negative = inhibition) at 10uM” value amounted to 11.5%.

Regarding `O=c1c2ccccc2nc(-c2ccccc2Cl)n1-c1cccc(O)c1`, the “hERG current change (%, negative = inhibition) at 10uM” value was 2.55%.

Turning to `Cc1cc(SCNC(=O)c2ccccc2)ncn1`, the “hERG current change (%, negative = inhibition) at 10uM” value is on record as 11.5%.

As to `O=C(CS(=O)(=O)c1cn(Cc2ccc(Cl)cc2)c2ccccc12)N1CCCCC1`, the “hERG current change (%, negative = inhibition) at 10uM” value was found to be 14.5%.

For the compound `O=C(NCc1ccco1)C1CCCN(S(=O)(=O)c2ccc(Cl)cc2)C1` (stereo not shown), the “hERG current change (%, negative = inhibition) at 10uM” value is -13.2%.

In the case of `O=C(Cn1nc(Cc2ccncc2)c2ccccc2c1=O)N1CCN(C(=O)c2ccco2)CC1`, the “hERG current change (%, negative = inhibition) at 10uM” value is listed as -26.7%.

Turning to `COc1ccc(OC)c(C(=O)c2coc3ccc(O)c(CN(C)C)c23)c1.Cl`, the “hERG current change (%, negative = inhibition) at 10uM” value is given as -12.7%.

In the case of `CN(C(=O)COC(=O)c1ccc2c(c1)OCCO2)c1ccccc1`, the “hERG current change (%, negative = inhibition) at 10uM” value is on record as 5.16%.

In the case of `O=C(CSc1nnc(Cn2cnc3ccccc32)o1)c1ccccc1`, the “hERG current change (%, negative = inhibition) at 10uM” value is recorded as -7.21%.

Consider `COCC(=O)Nc1ccc(S(=O)(=O)Nc2ccccn2)cc1`, for which the “hERG current change (%, negative = inhibition) at 10uM” value turned out to be 17.8%.

Turning to `CCn1c(SCC(=O)Nc2ccc(OC)cc2OC)nc2nc3c(cc2c1=O)COC(C)(C)C3`, the “hERG current change (%, negative = inhibition) at 10uM” value is -2.49%.

`COc1ccc(CCNC(=O)c2cc3c(F)cccc3s2)cc1OC`: the “hERG current change (%, negative = inhibition) at 10uM” value is -23.9%.

Regarding `O=C(NCC1CCN(Cc2ccccc2F)CC1)Nc1cc(F)ccc1F`, the “hERG current change (%, negative = inhibition) at 10uM” value was -59.9%.

Take `CCOC(=O)c1cccc(NC(=O)CCS(=O)(=O)c2cccs2)c1`: the “hERG current change (%, negative = inhibition) at 10uM” value was -4.36%.

Consider `Cc1cc(N2C(=O)C(O)=C(C(=O)c3cc4ccccc4o3)C2c2ccc(Cl)cc2)no1` (stereo not shown), for which the “hERG current change (%, negative = inhibition) at 10uM” value is on record as -32.7%.

For `Cc1ccc2c(c1)C(=C(C#N)C#N)C(=O)N2CCN1CCCCC1`, the “hERG current change (%, negative = inhibition) at 10uM” value is given as -16.2%.

Regarding `CCOCCCNC(=O)C(c1ccc(OC)cc1)N(Cc1ccc2c(c1)OCO2)C(=O)CNC(C)=O` (stereo not shown), the “hERG current change (%, negative = inhibition) at 10uM” value is 15.3%.

Consider `Cc1ccc(NC(=O)CCc2nnc3ccc(N4CCN(C)CC4)nn23)cc1F`, for which the “hERG current change (%, negative = inhibition) at 10uM” value was -44.7%.

For `COc1ccc(CCNC(=O)CSc2cc(=O)[nH]c(N)n2)cc1OC`, the “hERG current change (%, negative = inhibition) at 10uM” value stood at 4.58%.

With `COc1ccc2[nH]cc(CC(=O)O)c2c1`, the “hERG current change (%, negative = inhibition) at 10uM” value came to 6.94%.

Regarding `COc1cc2ccc(=O)oc2cc1O`, the “hERG current change (%, negative = inhibition) at 10uM” value amounted to 12%.

Regarding `Cc1ccc(-n2cc(CN3CCN(Cc4nccn4C)CC3)c(-c3ccc(F)cc3)n2)cc1`, the “hERG current change (%, negative = inhibition) at 10uM” value was -26.8%.

In the case of `CCC(c1nnnn1C1CCCC1)N1CCN(c2ccccc2)CC1` (stereo not shown), the “hERG current change (%, negative = inhibition) at 10uM” value is reported as -11.7%.

In the case of `O=C(NC1CCCC1)C(c1cccs1)N(CC1CCCO1)C(=O)Cc1cccs1` (stereo not shown), the “hERG current change (%, negative = inhibition) at 10uM” value is listed as -7.64%.

In the case of `COc1ccc(NC(=O)CN2CCN(c3ccc(C)cc3C)CC2)cc1`, the “hERG current change (%, negative = inhibition) at 10uM” value is -60.7%.

`CC(=O)C1=C(C)NC(=O)NC1c1ccc(Cl)cc1` (stereo not shown): the “hERG current change (%, negative = inhibition) at 10uM” value was 4.06%.

As to `Cc1cccnc1NC(=O)c1cccc(NC(=O)CC2SC(N3CCCCC3)=NC2=O)c1` (stereo not shown), the “hERG current change (%, negative = inhibition) at 10uM” value worked out at 12.6%.

As for `Cc1ccc2[nH]c3c(=O)n(N)c(C)nc3c2c1`, the “hERG current change (%, negative = inhibition) at 10uM” value worked out at 15.7%.

For the compound `CC(C)NC(=S)NNc1ncnc2sc3c(c12)CC(C)(C)OC3`, the “hERG current change (%, negative = inhibition) at 10uM” value worked out at 8.65%.

As to `CC(C)(C)OC(=O)NC(CO)c1cn([C@@H](Cc2cc3ccccc3[nH]2)C(=O)N2CCN(C(=O)OC(C)(C)C)CC2)nn1` (stereo partly shown), the “hERG current change (%, negative = inhibition) at 10uM” value is listed as 2.26%.

Regarding `COC(=O)c1cccc(NC(=O)C(C)N2C(=O)c3ccccc3C2=O)c1` (stereo not shown), the “hERG current change (%, negative = inhibition) at 10uM” value was -1.39%.

Take `COC(=O)C1=C(c2ccc(Cl)c(C(F)(F)F)c2)C[C@@H]2CC[C@H]1N2C(=O)NC(C)C`: the “hERG current change (%, negative = inhibition) at 10uM” value is listed as -13.9%.

With `Cn1c(C(=O)N2CCCC(C(=O)NCCN3CCOCC3)C2)cc2sccc21` (stereo not shown), the “hERG current change (%, negative = inhibition) at 10uM” value worked out at 3.34%.

Take `CC(=O)Oc1cc(O)c2c(c1)OC(c1ccc(OC(C)=O)c(OC(C)=O)c1)C(OC(C)=O)C2=O` (stereo not shown): the “hERG current change (%, negative = inhibition) at 10uM” value is given as -4.69%.

Regarding `O=[N+]([O-])c1cc2c(cc1CN1CCN(c3ccc(F)cc3)CC1)OCO2`, the “hERG current change (%, negative = inhibition) at 10uM” value is listed as -22.2%.

Source of the values: PMC4336329 (PLoS ONE, 2015).
